{"source": "paper PMC9240354", "about": "“Pharmacokinetics, Pharmacodynamics and Antiviral Efficacy of the MEK Inhibitor Zapnometinib in Animal Models and in Humans” (Frontiers in Pharmacology, 2022)", "test_system": "MEK1/2", "test": "phosphorylation of MEK and ERK in PMA-stimulated human PBMCs (Wes)", "conditions": "50 µg/ml 1 h, then 400 nM PMA 30 min", "data": [{"smiles": "O=C(O)c1ccc(F)c(F)c1Nc1ccc(I)cc1Cl", "note": "[zapnometinib, 2-(2-Chloro-4-Iodophenylamino)-N-3,4-Difluoro benzoic acid]", "values": [{"measurement": "phosphorylation of ERK1/2", "value": "inhibition of the phosphorylation of the MEK1/2-dependent kinase ERK1/2"}]}]}
